The whole screen tested about 390,000 compounds, of which about 930 (0.24%) were called active. The inconclusive results got no clear call from the source; some entries with a clear call stand among them for comparison. The call rests on the fitted dose curve; in most records, active means well fitted activation curve with a large enough effect; inconclusive means small, poorly fitted or top-dose-only effect; inactive means no such curve, though single readings can be large or run the other way. Where the call is inconclusive, the potency comes from a doubtful curve fit.
assay: qHTS for Suppressors of FUS Proteinopathy: Primary screen using FUS-linked yeast assay; further: nearly all actives have a fitted effect of over 55% in size;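 on growth rescue (activation): plate controls were DMSO vehicle for no effect and reference control for full effect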; settings: S. cerevisiae FUS-expressing, OD600, 24 h; Potency: growth rescue; growth rescue (activation): at 76.6 µM (top of the series)
Method in brief: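 Galactose (2%) drives FUS expression in yeast precultured in raffinose; seeding density OD 0.005. Test compounds incubated 24hr at 30C and 99% humidity before absorbance at 600 nm was measured.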
Potency means the concentration at half of the fitted maximal effect; tags describe the fitted curve by direction and shape.

Row | SMILES | Potency | growth rescue (activation)
1 | CC(C)C[C@@H](CNCC(=O)[C@H](Cc1c[nH]c2ccccc12)NC(=O)c1[nH]cnc1C(=O)N[C@H](CN)CC(C)C)NC(=O)c1nc[nH]c1C(=O)N[C@@H](CC(=O)O)C(=O)O | inconclusive: 28.2 µM [activator, single point] | –
2 | CCCCNC(=O)C[C@H]1C[C@@]2(C(=O)OC)C(=C[C@H](COCc3ccccc3)O[C@@H]2C)N(Cc2ccccc2)C1=O | inconclusive: 17.8 µM [activator, partial curve, poor fit] | –
3 | COc1ccc(CCNc2cc(=O)[nH]c(N)n2)cc1 | inconclusive: 22.4 µM [activator, partial curve, poor fit] | –
4 | O=S(=O)(c1ccc2c(c1)nc(COc1ccc(Cl)cc1)n2CC1CCCO1)N1CCOCC1 (stereo unspecified) | inconclusive: 39.8 µM [activator, single point] | –
5 | NNc1nc2sc3c(c2c(=O)n1-c1ccccc1)CCCC3 | inconclusive: 44.7 µM [activator, partial curve, poor fit] | –
6 | O=C(c1n[nH]c2ccccc12)N1CCCCC1 | inactive | –
7 | CC[C@]12c3[nH]c4cc(-c5ccco5)ccc4c3CCN1C(=O)[C@@H](CC(=O)NCc1ccc(OC)c(OC)c1)C[C@@H]2C(=O)N1CCN(C(=O)c2ccco2)CC1 | active: 35.5 µM | –
8 | C=CCN1C(=O)C(CC(=O)Nc2ccc(OCCC)cc2)N(CCCN2CCN(Cc3ccccc3)CC2)C1=S (stereo unspecified) | inconclusive: 35.5 µM [activator, single point] | –
9 | O=C(Nc1ccc2c(c1)nc1n2CCN(Cc2ccccc2)C1)NC1CCCCC1 | inconclusive: 3.16 µM [activator, full curve] | –
10 | C=C1CCC2C(C)(C)CCC[C@]2(C)[C@H]1CC1=C(O)C(=O)C(CO)=CC1=O (stereo partly specified) | inconclusive: 28.2 µM [activator, partial curve, poor fit] | –
11 | CCCCNC(=O)C1C(c2ccc(OC)cc2)=Nc2ccccc2N1C(=O)Cc1cc(OC)cc(OC)c1 (stereo unspecified) | inconclusive: 22.4 µM [activator, partial curve] | –
12 | COc1ccccc1-c1cc(N)n[nH]1 | inconclusive: 25.1 µM [activator, single point] | –
13 | O=C(COCc1cc(-c2cccs2)on1)Nc1cc(C(F)(F)F)ccc1Cl | inactive | –
14 | Cc1ccc(O)c(-c2n[nH]c3c2C(c2ccc(F)cc2)N(Cc2ccco2)C3=O)c1 (stereo unspecified) | inconclusive: 17.8 µM [activator, partial curve, poor fit] | –
15 | COc1ccc(CCNc2ncnc3onc(C)c23)c(OC)c1 | inactive | –
16 | O=C(CSc1nnc(-c2cccnc2)n1Cc1ccco1)N1c2ccccc2Sc2ccccc21 | inconclusive: 39.8 µM [activator, partial curve, poor fit] | –
17 | CN(C)c1ccc(CC(=O)N2CCCCC2c2cc(C(=O)Nc3cccc(C#N)c3)no2)cc1 (stereo unspecified) | inconclusive: 50.1 µM [activator, single point] | –
18 | Cc1ccc(S(=O)(=O)c2cc3cc(C(=O)Nc4ccc(C)cc4C)ccc3oc2=O)cc1 | inactive | –
19 | CC(C)c1ccc(OC[C@@H](O)CN2CCC(C(O)(c3ccccc3)c3ccccc3)CC2)cc1 | inactive | –
20 | CC(C)(C)c1cc(C(=O)NCc2ccccc2)ccn1 | inactive | –
21 | Cc1ccc(-c2nn3c(C)nnc3s2)cc1NC(=O)c1cccs1 | inconclusive: 14.1 µM [activator, partial curve, poor fit] | –

Row | SMILES | Potency | growth rescue (activation)
22 | CCOC(=O)c1cnc2ccc(OCC)cc2c1Nc1ccc(OCc2ccccc2Cl)cc1 | inactive | –
23 | Cc1cccc(CNC(=O)CN2C(=O)CSc3c2c(C)nn3-c2ccccc2)c1 | inactive | –
24 | CC(=O)c1ccc(NC(=O)C(C)OC(=O)c2ccc(NS(=O)(=O)c3ccc4[nH]c(=O)[nH]c4c3)cc2)cc1 (stereo unspecified) | inconclusive: 25.1 µM [activator, single point] | –
25 | Cc1cccc(CNC(=O)CN2C(=O)CCn3nc(-c4cn(C)c5ccccc45)cc32)c1 | inconclusive: 39.8 µM [activator, single point] | –
26 | Cc1ccc(SCc2nc(-c3ccc(C(=O)NCC(C)c4ccccc4)cc3)oc2C)cc1 (stereo unspecified) | inactive | –
27 | CCOC(=O)[C@@]12CCCC=C1N(CCc1ccc(Cl)cc1)C(=O)[C@H]2CC(=O)NCCCCc1ccccc1 | inconclusive: 22.4 µM [activator, single point] | –
28 | Cc1cc(C(=O)CSc2ccc(F)cc2)cc(C)c1OC(=S)N(C)C | inactive | –
29 | CCOc1ccc(N2C(=O)C(CC(=O)Nc3ccccc3)N(Cc3ccccn3)C2=S)cc1 (stereo unspecified) | inconclusive: 22.4 µM [activator, partial curve, poor fit] | –
30 | Cc1nc(S(=O)(=O)N2CCN(c3ccccc3F)CC2)cn1C | inactive | –
31 | COc1ccc(OC)c(/C=C(\C#N)c2nc(-c3ccc(F)cc3)cs2)c1 | inactive | –
32 | COc1cccc(CNC(=O)CCC2CCCN(C(=O)c3ccc(OC)o3)C2)c1 (stereo unspecified) | inactive | –
33 | O=C(Nc1ccc2c(c1)OCCO2)C(C1CC1)n1c(=O)c(-c2ccccc2)nc2ccccc21 (stereo unspecified) | inconclusive: 17.8 µM [activator, partial curve, poor fit] | –
34 | O=C(CN1CCN(Cc2ccccc2Cl)C1=O)NCCc1ccc(Cl)cc1 | inconclusive: 2.82 µM [activator, full curve] | –
35 | O=C(Nc1ccc(Cl)cc1)c1cc(S(=O)(=O)NC2CCCCCC2)ccc1F | inactive | –
36 | CN(CC(=O)Nc1cccc(F)c1)C(=O)c1ccc(COc2ccccc2)cc1 | – | inconclusive: -46.1% [activator]
37 | O=C(c1cn(-c2ccc(Cl)c(Cl)c2)nn1)C1CC1 | inactive | –
38 | COc1cc(-c2ccc3c(=O)c4ccccc4n(C)c3c2)cc(OC)c1OC | inconclusive: 31.6 µM [activator, single point] | –
39 | COc1cc(OC)c(N(C)C(=O)c2cn(C3CCCC3)c(=O)c3c2c2ccccc2n3C)cc1Cl | inactive | –
40 | Cc1ccc([N+](=O)[O-])cc1S(=O)(=O)Nc1cccc(-c2ccc(N3CCCC3)nn2)c1 | inconclusive: 25.1 µM [activator, partial curve, poor fit] | –
41 | COc1ccc(S(=O)(=O)N2CCCCCC2)cc1C(=O)OCC(=O)NC(N)=O | inconclusive: 3.16 µM [activator, partial curve, poor fit] | –

Source: PubChem BioAssay AID1347120 (National Center for Advancing Translational Sciences (NCATS), 2019)
